# From PubChem BioAssay AID624417 (National Center for Advancing Translational Sciences (NCATS), 2012)
# The whole screen tested about 410,000 compounds, of which about 6,400 (1.6%) were called active. Inconclusive means that the source gave no clear call. Such entries were picked first, then a sample of the others. Calls come from the whole dose curve; as a rule, active = well fitted inhibition curve with a large enough effect; inconclusive = small, poorly fitted or top-dose-only effect; inactive = no such curve, though single readings can be large or run the other way. No potency is given beside an inconclusive call; the fits are too rough.
# Target: Glucagon-like peptide 1 receptor (Homo sapiens) (UniProt P43220)
# Sequence of UniProt P43220 (P43220 whole entry, looked up): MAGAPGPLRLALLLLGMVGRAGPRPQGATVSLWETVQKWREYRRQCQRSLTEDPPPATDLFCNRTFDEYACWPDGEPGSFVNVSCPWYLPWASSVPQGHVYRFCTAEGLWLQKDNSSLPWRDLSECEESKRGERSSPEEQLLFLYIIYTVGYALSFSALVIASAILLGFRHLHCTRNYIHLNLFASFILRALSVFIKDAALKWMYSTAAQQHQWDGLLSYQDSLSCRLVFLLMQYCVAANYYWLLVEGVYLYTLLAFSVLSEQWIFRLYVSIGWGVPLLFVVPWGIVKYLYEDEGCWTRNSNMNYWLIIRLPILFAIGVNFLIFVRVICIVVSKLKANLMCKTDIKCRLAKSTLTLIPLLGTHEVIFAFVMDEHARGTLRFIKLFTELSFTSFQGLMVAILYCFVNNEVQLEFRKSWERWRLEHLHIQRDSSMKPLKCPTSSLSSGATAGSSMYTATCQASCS
# Assay: qHTS of GLP-1 Receptor Inverse Agonists (Inhibition Mode); note: nearly all actives have a fitted effect of over 55% in size
# Conditions: HEK293 GLP-1R CRE-luciferase, luminescence, 24 h, GLP-1R form is constitutively active; series mostly up to 38.3 µM
# In short: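 HEK293 cells stably co-expressing a cAMP-responsive luciferase reporter and constitutively active GLP-1R were seeded, incubated 12 h, then exposed to compounds for 24 h at 37 C. Luminescence was read 12 min after detection reagent; inverse agonists lower signal.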
# Potency is the fitted concentration of half-maximal effect; tags give direction and shape of the fitted curve.
row,SMILES,Potency
1,Cc1ccc(S(=O)(=O)N2C[C@@H]3[C@H]4CC[C@H](C4)[C@@H]3[C@@H](C)C2CC(=O)c2ccccc2)cc1 (some centres not stated),"inconclusive [inhibitor, single point]"
2,CCCC(C(=O)NC1=NCCS1)c1ccccc1 (configuration not stated),"inconclusive [inhibitor, partial curve, poor fit]"
3,Cc1ccc(-c2ccc([C@H]3[C@@H]4C=CCC[C@@]4(C)C(=O)N3Cc3ccccc3)c(F)c2)cc1,"inconclusive [inhibitor, partial curve, poor fit]"
4,O=C(NCCC1=CCCCC1)C(c1ccccc1)c1ccccc1,"inconclusive [inhibitor, partial curve, poor fit]"
5,O=C(Nc1ccc(C(=O)NCCCN2CCCCC2)cc1)C1=CSCCO1,inactive
6,CC1CCc2c(sc(NC(=S)NC(=O)c3ccccc3)c2C#N)C1 (configuration not stated),inactive
7,CCO[C@H]1OC(C(=O)NCc2nc3ccccc3[nH]2)=C[C@@H](c2ccc(C(F)(F)F)cc2)[C@@H]1CCCO,"inconclusive [inhibitor, single point]"
8,CCCOc1c(OC)cccc1C1CC(=O)Nc2cc3c(cc21)OCCO3 (configuration not stated),"inconclusive [inhibitor, partial curve]"
9,CCOc1ccc(NC(=O)Cn2c(=O)n(CCCCC(=O)NCCc3ccc(Cl)cc3)c(=O)c3ccccc32)cc1,inactive
10,O=C(CCS(=O)(=O)c1ccc2c(c1)NC(=O)CO2)NCCc1ccc(Cl)cc1,"inconclusive [inhibitor, partial curve]"
11,Cc1ccc(OCc2cc(C(=O)N3CCN(c4ccccc4)CC3)no2)cc1C,"inconclusive [inhibitor, single point]"
12,Cc1ccc(N2CN(CCc3ccccc3)CNC2=S)cc1,"inconclusive [inhibitor, single point]"
13,CCOc1ccc(C(=O)Nc2ccc3oc(-c4ccc(C)cc4C)nc3c2)cc1Br,inactive
14,O=C(Nc1cccc(Cl)c1)N1CC2CCCN2c2ccccc21 (configuration not stated),"inconclusive [inhibitor, single point]"
15,CCCC1/C(=N/O)CC(c2ccccc2)NC1c1ccccc1 (configuration not stated),"inconclusive [inhibitor, partial curve, poor fit]"
16,Cc1cc(C)c(OCC(=O)N/N=C/c2ccc3c(c2)OCO3)c(C)c1,"inconclusive [inhibitor, full curve]"
17,O=C(C1CCC(CNS(=O)(=O)c2ccc(Br)s2)CC1)N1CCN(c2ccc(F)cc2)CC1 (configuration not stated),"inconclusive [inhibitor, full curve]"
18,CCOc1ccccc1NC(=O)c1c2c(nc3ccccc13)C(=O)N(C1CCCCC1)C2,"inconclusive [inhibitor, partial curve]"
19,CC(C)=CCCC(C)CN1CCC(O)CC1 (configuration not stated),"inconclusive [inhibitor, full curve, poor fit]"
20,CC(C)CNC(=O)C1CCN(Cc2ccc(OCc3ccccc3)cc2)CC1,"inconclusive [inhibitor, single point]"
21,CCCOc1ccc(Oc2nc(NC)nc(N3CCOCC3)n2)nn1,inactive

row,SMILES,Potency
1,Cc1ccc(NC(=O)C(=O)NCC(c2cccnc2)N2CCN(Cc3ccccc3)CC2)cc1Cl (configuration not stated),inactive
2,Cc1cnc(NC(=O)C2CCCC2)s1,"inconclusive [inhibitor, full curve, poor fit]"
3,COc1ccc(CO[C@@H]2O[C@H](CO)[C@@H](O)[C@H](O)[C@H]2NC(C)=O)cc1OC,inactive
4,CCOC(=O)c1c(-c2ccccc2)csc1N1C(=O)Nc2ccccc2N1O,"inconclusive [inhibitor, partial curve, poor fit]"
5,CC1CCN(C(=S)Nc2ccc(F)cc2)CC1,"inconclusive [inhibitor, full curve, poor fit]"
6,CCCC(=O)Nc1ccc(NC(=O)c2ccccc2)nc1,"inconclusive [inhibitor, partial curve, poor fit]"
7,Oc1ccccc1N1CCN(CC(O)COC2CCCc3ccccc32)CC1 (configuration not stated),"inconclusive [inhibitor, single point]"
8,Cn1c(SCC(=O)NNC(=O)Nc2ccccc2)nnc1-c1ccccc1,"inconclusive [inhibitor, full curve]"
9,Cc1c(/C(O)=C2\C(=O)C(=O)N(CCCN(C)C)C2c2ccccc2)cnn1-c1ccccc1 (configuration not stated),"inconclusive [inhibitor, partial curve, poor fit]"
10,O=S(Cc1ccccc1)CC(O)(c1ccc(Cl)cc1)c1ccc(Cl)cc1 (configuration not stated),"inconclusive [inhibitor, single point]"
11,O=C(/C=C/c1cccs1)N1CCN(c2ccc(O)cc2)CC1,"inconclusive [inhibitor, partial curve, poor fit]"
12,Cc1ccc(Cl)cc1N1CCN(c2nc3ccccc3c3nc(-c4cccnc4)nn23)CC1,"inconclusive [inhibitor, single point]"
13,O=[N+]([O-])c1ccccc1SN(Cc1ccccc1)c1ccccn1,"inconclusive [inhibitor, partial curve, poor fit]"
14,OC(Cc1ccccc1Br)c1ncc(-c2ccc(Cl)cc2)[nH]1 (configuration not stated),"inconclusive [inhibitor, partial curve, poor fit]"
15,COc1ccccc1CCNC(=O)Cn1ccc2cc(S(=O)(=O)N3CCC(C)CC3)ccc21,"inconclusive [inhibitor, single point]"
16,Cc1ccc(-c2onc(C)c2C)cc1S(=O)(=O)N1CCN(c2ccccc2F)CC1,inactive
17,CCN(Cc1ccccc1)C(=O)CSc1nc(C)cc(C)c1C#N,"inconclusive [inhibitor, partial curve, poor fit]"
18,COc1ccccc1CCn1cnc2c3cc(C)ccc3n(C)c2c1=O,"inconclusive [inhibitor, partial curve, poor fit]"
19,Cc1cc(C)c2c(c1)/C(=N/NC(=S)Nc1ccc(F)cc1)CCC2,"inconclusive [inhibitor, single point]"
20,Cc1cccc(NC(=O)c2cc([N+](=O)[O-])ccc2Cl)c1O,"inconclusive [inhibitor, single point]"
21,COc1ccc(C(CNC(=O)c2cccc(S(=O)(=O)N(C)c3ccccc3)c2)N2CCCC2)cc1 (configuration not stated),"inconclusive [inhibitor, single point]"

row,SMILES,Potency
1,O=C1c2ccccc2NC2(CCCC2)N1O,"inconclusive [inhibitor, single point]"
2,O=C(NCCN1CCN(C(=O)c2cccs2)CC1)c1cccs1,inactive
3,CN(C)c1ccc(NS(=O)(=O)c2ccc(Cl)cc2)cc1,"inconclusive [inhibitor, single point]"
4,O=C1NC(Cc2ccccc2)c2nc3cc(F)ccc3c(=O)n2-c2cc3ccccc3cc21 (configuration not stated),"inconclusive [inhibitor, partial curve, poor fit]"
5,c1ccc(CCc2nc(-c3ccncc3)no2)cc1,inactive
6,O=C(CN1C(=O)/C(=C/c2ccccc2F)Sc2ccccc21)NCCCN1CCOCC1,"inconclusive [inhibitor, single point]"
7,Cc1ccc(NCc2nnc(SCC(=O)Nc3ccccc3)n2CC2CCCO2)c(C)c1 (configuration not stated),"inconclusive [inhibitor, partial curve, poor fit]"
8,CCOc1ccc(NC(=O)C(CC)n2nc(C)c3c(C)n(-c4ccccc4)nc3c2=O)cc1 (configuration not stated),"inconclusive [inhibitor, single point]"
9,COCCn1c(C)cc(C(=O)CSc2ccc3ccccc3n2)c1C,"inconclusive [inhibitor, single point]"
10,COc1cc(CN2CCN(Cc3ccccc3C(F)(F)F)CC2)cc(OC)c1OC,"inconclusive [inhibitor, single point]"
11,CC(C)c1ccc(NC(=O)CCNS(=O)(=O)c2cc(Br)cnc2N)cc1,"inconclusive [inhibitor, full curve]"
12,Oc1ccccc1/C=N/Nc1nccnc1Cl,"inconclusive [inhibitor, partial curve, poor fit]"
13,CCCc1cc(=O)oc2cc(OC(C)C(=O)NCCCn3ccnc3)ccc12 (configuration not stated),"inconclusive [inhibitor, partial curve, poor fit]"
14,COc1cc2c(cc1OC)CN(CC(=O)Nc1ccc(Cl)cc1Cl)CC2,"inconclusive [inhibitor, single point]"
15,Cc1cc(C)n(-c2nc3ccccc3nc2Nc2ccc3[nH]c(=O)[nH]c3c2)n1,inactive
16,O=C(O)CSc1cc(C(=O)c2cc(F)ccc2O)cn2c(=O)c3c(-c4ccccc4)csc3nc12,"inconclusive [inhibitor, single point]"
17,Cc1ccccc1NS(=O)(=O)c1ccc2[nH]cc(C(=O)NCCc3ccccc3)c(=O)c2c1,"inconclusive [inhibitor, single point]"
18,Cc1ccc(C(O)c2ncc(-c3ccccc3C(F)(F)F)[nH]2)cc1F (configuration not stated),"inconclusive [inhibitor, single point]"
19,CCN(CC)c1ccc(C(=O)N/N=C/c2ccccc2OC(F)F)cc1,"inconclusive [inhibitor, partial curve, poor fit]"
20,N/C(Cc1ccc(Cl)cc1)=N\OC(=O)c1ccccc1,"inconclusive [inhibitor, single point]"
